Experimental data as given in PubChem BioAssay AID1479 (National Center for Advancing Translational Sciences (NCATS), 2009).
About 820 (0.29%) of roughly 280,000 compounds were called active. The shares of active, inactive and inconclusive entries below differ from those in the screen. The call rests on the fitted dose curve; in most records, active means well fitted curve in either direction with a large enough effect; inconclusive means small, poorly fitted or top-dose-only effect; inactive means flat fitted curve, though single readings scatter. No potency is given beside an inconclusive call; the fits are too rough.

Assay: Total Fluorescence Counterscreen for Inhibitors of the Interaction of Thyroid Hormone Receptor and Steroid Receptor Coregulator 2
Conditions: TRb/SRC2 Texas Red total fluorescence interference; series mostly up to 106 µM; fluorescence change, negative = quenching: at the top concentration
How it was run: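 Human TRb ligand-binding domain at 0.6 uM with 20 nM Texas Red SRC2 peptide in Tris buffer containing 1 uM T3 and 5% DMSO, incubated with compound 5 h at ambient temperature. Total fluorescence (555/632 nm) calculated as parallel + 2 × perpendicular.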
On the % scale 0 is the no-effect control and ±100 the full control effect; potency means the concentration at half of the fitted maximal effect; tags describe the fitted curve by direction and shape or compound fluorescence and quenching.

SMILES	Potency	fluorescence change, negative = quenching
CCOc1ccccc1N(CC(=O)Nc1ccc(OC)c(Cl)c1)S(=O)(=O)c1ccccc1	inconclusive [falling, full curve, poor fit]	–
CCn1c(CSc2nc3ccccc3[nH]2)nc2cc(C(=O)O)ccc21	inconclusive [fluorescent, partial curve]	–
Cc1ccc(C)c(C(=O)CN2C(=O)NC3(CCC(C)CC3)C2=O)c1 (stereo unspecified)	inconclusive [falling, full curve, poor fit]	–
Cc1ccc(O)c(C2=Nc3ccccc3N=C(c3cccc(F)c3)C2)c1	inconclusive [falling, full curve, poor fit]	–
Cc1ccc2nc(SCC(=O)Nc3ccc(C#N)cc3)[nH]c2c1	inconclusive [falling, full curve, poor fit]	–
CC(C)(C)c1ccc(NC(=O)CSc2nnc(-c3n[nH]c4ccccc34)o2)cc1	inconclusive [falling, partial curve, poor fit]	–
CC(C)CCN(Cc1ccco1)C(=O)Cn1ncc2c([nH]c3ccccc32)c1=O	inconclusive [quencher, full curve]	–
CCC(=O)N1CCc2cc(CNC(=O)Nc3cc(Cl)ccc3C(=O)OC)ccc21	inconclusive [quencher, full curve]	–
COc1ccc(O[C@H]2C=C[C@@H](c3ccccc3)O[C@@H]2CO/N=C(\C)CCN2CCc3nc(-c4ccccc4)c(-c4ccccc4)cc3C2)cc1	inconclusive [falling, full curve, poor fit]	–
Cc1ccc(/C=C2/NC(=O)N(c3ccccc3)C2=O)o1	–	inactive: 1.29%
COc1ccc(C(=O)Nc2ccc(N3CCOCC3)c(C(F)(F)F)c2)cc1OC	active: 11.2 µM [quencher]	–
O=[N+]([O-])c1cc(Cl)cc(/C=N/Nc2nc3ccccc3s2)c1O	–	inactive: -3.13%
Cc1ccc(N=Cc2cc(Br)cc(Cl)c2O)cc1	–	inactive: -3.79%
Nc1nc2nc(-c3ccc(Cl)cc3)cc(C(F)(F)F)n2n1	inconclusive [quencher, full curve]	–
COC(=O)c1c(NC(=O)C2c3ccccc3Oc3ccccc32)sc2c1CCC(C)C2 (stereo unspecified)	inconclusive [falling, full curve, poor fit]	–
CC(=O)Nc1ccc(C(=O)Nc2nc(-c3cccnc3)cs2)cc1	–	inactive: -0.168%
Cc1ccc(S(=O)(=O)NNc2ccccc2)c(C)c1	–	inactive: 2.4%
CCN1C(=O)c2ccccc2S(=O)c2ccc(C(=O)N3CCN(c4ccc(F)cc4)CC3)cc21 (stereo unspecified)	inconclusive [falling, partial curve, poor fit]	–
O=C(Nc1ccc2oc(-c3cccc4c(Br)cccc34)nc2c1)c1ccc(Br)cc1	inconclusive [falling, full curve, poor fit]	–
CC(=O)c1[nH]c(C)c(C(=O)NCc2ccc(Cl)cc2)c1C	active: 1120 µM [quencher]	–
Cc1ccc(NC(=O)CSc2nnc(C)s2)c(C)c1	inconclusive [quencher, full curve]	–
C=CCNC(=O)c1ccc(CNS(=O)(=O)c2ccc(NC(C)=O)cc2)cc1	–	inactive: -3.01%

SMILES	Potency	fluorescence change, negative = quenching
COCCNC(=O)c1ccc2c(c1)NC(=O)C(CS(=O)(=O)Cc1ccc(F)cc1Cl)N2 (stereo unspecified)	inconclusive [rising, single point]	–
COc1ccc(OC)c(NC(=O)Cn2nc3c(cc2=O)CCCC3)c1	inconclusive [quencher, full curve]	–
COC(=O)C1=C[C@@H](C(=O)OC)C2C3=C(C(=O)[C@]2(C)NC(=O)c2ccccc2)[C@H](C)[C@@H]2C(=O)N(C)C(=O)[C@@H]2[C@@H]3C1 (stereo partly specified)	–	inactive: -0.0874%
COc1ccc(SN=C2C(C)=CC(=O)C=C2C)cc1	–	inactive: -1.61%
O=C(CNC(=O)c1ccc2c(c1)OCO2)N/N=C(Br)/C=C/c1ccccc1	–	inactive: 0.445%
CC(/C=N/Nc1nnc2c(n1)[nH]c1ccccc12)=C\c1ccco1	–	inactive: -2.51%
COc1ccc(CCN=Cc2c(C)[nH]n(-c3ccc([N+](=O)[O-])cc3)c2=O)cc1OC	–	inactive: -3.63%
c1ccc(-c2cc(-c3ccccc3)c3c(n2)-c2ccccc2OC3)cc1	inconclusive [falling, full curve, poor fit]	–
Cc1ccc(CCNC(=O)c2cc3c(s2)-c2ccccc2OC3)cc1	inconclusive [quencher, full curve]	–
COc1cccc(OCC(=O)NNC(=O)c2cnccn2)c1	inconclusive [falling, full curve, poor fit]	–
CC(=O)C1=C(c2ccccc2)OC(N)=C(C#N)C1c1ccccc1F (stereo unspecified)	inconclusive [falling, full curve, poor fit]	–
Cc1ccc(NC(=O)CSCn2nnc3c(=O)[nH]c(Cc4ccc(F)cc4)nc32)c(C)c1	active: 0.316 µM [quencher]	–
Clc1ccc(-c2csc(=Nc3ccccc3)n2Cc2ccc3c(c2)OCO3)cc1	inconclusive [quencher, full curve]	–
CCCCN1CCc2[nH]c(=S)[nH]c(=O)c2C1	active: 0.708 µM [quencher]	–
O=C1Cc2c([nH]c3ccc(Br)cc23)-c2ccccc2N1	inconclusive [quencher, partial curve]	–
CCN(C(=O)/C=C/c1ccc2c(c1)OCO2)c1ccccc1	–	inactive: -0.851% [at 53 µM]
c1ccc2c(-c3nnc4n3CCCCC4)cc(-c3ccncc3)nc2c1	inconclusive [falling, full curve, poor fit]	–
CCOC(=O)c1c(NC(C)=O)c2c3c(sc2n1Cc1nc(-c2ccc(Cl)cc2)oc1C)CCCC3	inconclusive [falling, full curve, poor fit]	–
N#C/C(=C\c1ccc(-c2ccccc2C(=O)O)o1)c1nc2ccccc2[nH]1	inconclusive [quencher, full curve]	–
COc1cc(/C=C2/NC(=O)NC2=O)cc(Br)c1OCc1ccc(C(=O)O)cc1	–	inactive: -2.38%
CCC(CC)C(=O)Nc1cc(-c2cn3cccnc3n2)ccc1OC	inconclusive [falling, partial curve, poor fit]	–
Clc1cccc(Nc2nc(-c3ccncc3)nc3ccccc23)c1	–	inactive: -0.651%

SMILES	Potency	fluorescence change, negative = quenching
NC[C@@H](O)c1ccc(O)c(O)c1	inconclusive [falling, partial curve, poor fit]	–
Cc1ccc(C(=O)OC/C(O)=C(\C#N)c2nc3ccccc3[nH]2)cc1S(=O)(=O)N1CCOCC1	inconclusive [falling, partial curve, poor fit]	–
CCN(C(=O)COC(=O)c1c(NC(C)=O)sc(C)c1C)C1CCS(=O)(=O)C1 (stereo unspecified)	inconclusive [falling, full curve, poor fit]	–
Cc1ccc(NC(=O)CSCc2cnn(-c3ccccc3)c2-n2cccc2)c(C)c1	inconclusive [falling, full curve, poor fit]	–
Cc1ccc(CS(=O)(=O)c2cn(CC(=O)N(C)c3ccccc3)c3ccccc23)cc1	inconclusive [quencher, full curve]	–
COc1ccc(OCC(=O)NCC2(N3CCN(C)CC3)CCCCC2)cc1	inconclusive [falling, full curve, poor fit]	–
CCOC(=O)C1CCN(C(=O)Nc2ccc3nc(-c4ccco4)c(-c4ccco4)nc3c2)CC1	inconclusive [quencher, partial curve]	–
O=[N+]([O-])c1ccc(N2CCSCC2)cc1O	inconclusive [rising, single point]	–
O=[N+]([O-])c1ccc(O)c(N=Cc2sc3ccccc3c2O)c1	–	inactive: -4.21%
COc1cc2c(cc1NC(=O)COc1cc(C)ccc1C)oc1ccccc12	inconclusive [falling, full curve, poor fit]	–
O=C(Nc1c(F)cc(F)cc1Br)c1cc(-c2ccc(O)cc2)on1	inconclusive [falling, single point]	–
CCOC(=O)c1cc(CC)sc1/N=C/c1c(O)ccc2ccccc12	inconclusive [falling, single point]	–
COc1ccc(OC)c(N)c1	inconclusive [fluorescent, partial curve]	–
CCC(CC)C(=O)Nc1cccc(C(=O)NCCc2ccc(S(N)(=O)=O)cc2)c1	–	inactive: -5.48%
CCc1ccc(-n2c(-c3ccccc3)c(C)n3c4c(=O)n(C)c(=O)n(C)c4nc23)cc1	active: 56.2 µM [quencher]	–
CCCCCCN1C=C/C(=C\C=C(C#N)C#N)c2ccccc21	active: 44.7 µM [fluorescent]	–
O=C(O)CCCNc1cc(N2CCC3(CC2)OCCO3)c2noc3c2c1C(=O)c1ccccc1-3	active: 44.7 µM [fluorescent]	–
CC(C)COC(=O)/C(C#N)=C/c1cn(Cc2ccccc2)c2ccccc12	inconclusive [falling, full curve, poor fit]	–
CCOCCCNC(=O)NC(CCC(C)C)c1c(-n2cccc2)sc2c1CCN(C)C2 (stereo unspecified)	inconclusive [falling, partial curve, poor fit]	–
COC(=O)C(C(=O)OC)[C@@H]1CCCC(=O)C1	inconclusive [falling, partial curve, poor fit]	–
N#C/C(=C/c1ccc(N2CCOCC2)o1)c1nc2ccccc2[nH]1	inconclusive [fluorescent, partial curve]	–
CCOc1ccccc1NC(=O)COC(=O)Cc1ccc(-c2ccccc2)cc1	active: 31.6 µM [quencher]	–
